Measured values as given in the supplement of paper PMC4604168 (melanoma cell lines).
This is one part of the list. Repeats are few or missing, and single values can be far off.

What was measured:
Test in all cases: cell count relative to DMSO control; melanoma cells; higher = more viable cells
Settings in all cases: library dose: low library concentration; 72 h
WM115 = tested on: WM115
WM1716 = tested on: WM1716
WM1745 = tested on: WM1745
WM3526 = tested on: WM3526
WM3619 = tested on: WM3619
WM451Lu = tested on: WM451Lu
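Also: cell number obtained by counting DAPI-stained nuclei in high-throughput microscope images with image analysis software, screen run in 1,536-well plates.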

Compound	cell count (WM115)	cell count (WM1716)	cell count (WM1745)	cell count (WM3526)	cell count (WM3619)	cell count (WM451Lu)
CC1(C)CCC(c2ccc(Cl)cc2)=C(CN2CCN(c3ccc(C(=O)NS(=O)(=O)c4ccc(N[C@H](CCN5CCOCC5)CSc5ccccc5)c(S(=O)(=O)C(F)(F)F)c4)cc3)CC2)C1 + CC1(C)NC(=O)N(c2ccc([N+](=O)[O-])c(C(F)(F)F)c2)C1=O [nilutamide] (first compound 0.4 µM, partner dose 1 µM)	82.3%	59.8%	28.1%	85.2%	89.1%	99.5%
CC1(C)CCC(c2ccc(Cl)cc2)=C(CN2CCN(c3ccc(C(=O)NS(=O)(=O)c4ccc(N[C@H](CCN5CCOCC5)CSc5ccccc5)c(S(=O)(=O)C(F)(F)F)c4)cc3)CC2)C1 + Cn1sc(=O)n(Cc2ccccc2)c1=O [TDZD-8] (first compound 0.4 µM, partner dose 0.4 µM)	87.3%	70.2%	13.5%	85.6%	96.9%	82.6%
O=C(/C=C/c1cccnc1)NCCCCC1CCN(C(=O)c2ccccc2)CC1 + Cc1cc(N2CCOCC2)cc2[nH]c(-c3c(NC[C@@H](O)c4cccc(Cl)c4)cc[nH]c3=O)nc12 [BMS536924] (first compound 0.01 µM, partner dose 0.2 µM)	100%	94.5%	85.9%	79.8%	75.7%	92.6%
